Hit rate of the full screen: of about 52,000 compounds, about 4,300 (8.3%) were called active. No stated cut-off is given here; in the data, active means survival mostly below about 52% (no sharp cut-off); inactive means mostly above about 56%. The list shows a part of the results.
tested on: DeltatarO mutant; test: S. aureus survival, RN4220 and DeltatarO strains – OD600, teichoic acid synthesis inhibitors, primary screen (AID 463173); details: S. aureus RN4220 wild type/DeltatarO growth, OD600, 18 h, stronger effect = lower value, screened at 18.75 µg/mL (by protocol)

Q: With `Cc1nn(-c2nc(-c3ccccc3)cc(C(F)(F)F)n2)c(C)c1Cl` as the molecule, how does the survival read?
A: The survival was active: 5%.

Q: Which survival does the source give for `CC(C)Oc1ccc(NC(=O)C2COc3ccccc3O2)cc1` (configuration not stated) here?
A: Its survival is inactive: 103%.

Q: For `c1ccc2c(c1)ncn2CCn1cnc2ccccc21`, which survival is on record?
A: The survival was inactive: 100%.

Q: How did the survival turn out when `CCCCNC(=O)c1cccc(NC(=O)c2nsc3ccccc23)c1` was run?
A: The survival was inactive: 80%.

Q: With `O=C(c1cc2ccccc2oc1=O)N1CCCCCC1` as the molecule, how does the survival read?
A: The survival was inactive: 91%.

Q: With `COc1cccc(OC)c1C(=O)NCCc1sc(-c2cccc(F)c2)nc1C` as the molecule, how does the survival read?
A: Its survival is inactive: 69%.

Q: For `CCOc1ccc2c(c1)c(=O)c(C(=O)c1ccc3c(c1)OCO3)cn2Cc1ccc(F)cc1`, which survival is on record?
A: The survival was inactive: 98%.

Q: Which survival does the source give for `Cc1ccc(NC(=O)CSc2nc(=O)cc(N)n2-c2ccccc2)cc1` here?
A: Its survival is inactive: 87%.

Q: With `CC1CCN(C(=O)CN(CCc2ccccc2)S(C)(=O)=O)CC1` as the molecule, how does the survival read?
A: Its survival is inactive: 71%.

Q: How did the survival turn out when `CCOC(=O)N1CCc2c(sc3c2C(=O)NC(c2ccc(N(C)C)cc2)N3)C1` (configuration not stated) was run?
A: The survival was inactive: 55%.

Q: Which survival does the source give for `Cc1ccc2nc(NC(=O)CSc3[nH]c(=O)ncc3C)sc2c1` here?
A: Its survival is inactive: 102%.

Q: With `CCCCOc1ccc(C2c3c(oc4ccc(C)cc4c3=O)C(=O)N2CCCN(C)C)cc1OCC` (configuration not stated) as the molecule, how does the survival read?
A: Its survival is inactive: 88%.

Q: With `CC(=O)NCCNC(=O)CCCn1c(=O)[nH]c2ccsc2c1=O` as the molecule, how does the survival read?
A: The survival was inactive: 83%.

Q: With `COc1ccc(NC(=O)CN2CCC(c3nc4ccc(Cl)cc4[nH]3)CC2)c(OC)c1` as the molecule, how does the survival read?
A: Its survival is inactive: 69%.

Q: How did the survival turn out when `Cc1ccc(-n2c(SCc3ccccc3F)nc3[nH]ncc3c2=O)cc1Cl` was run?
A: The survival was inactive: 91%.

Q: For `O=C(Cn1nnc(-c2cccs2)n1)N1c2ccccc2CCc2ccccc21`, which survival is on record?
A: Its survival is inactive: 85%.

Q: `CCc1cccc(NC(=O)Cn2c(C(=O)OC)cc3sc(Cl)cc32)c1` was tested. Which survival did it give?
A: Its survival is inactive: 69%.

Q: With `CCN(CC)CCNC(=O)C1CCN(C(=O)c2cnn(-c3ccccc3)c2-n2cccc2)CC1` as the molecule, how does the survival read?
A: Its survival is inactive: 92%.

Q: With `O=C(CN1C2=NCCN2c2ccccc21)c1ccc(O)cc1` as the molecule, how does the survival read?
A: Its survival is inactive: 99%.

Q: For `CCCCN(CCCNC(=O)c1cc(Nc2cccc(SC)c2)nc2ccccc12)Cc1ccccc1`, which survival is on record?
A: The survival was inactive: 83%.

Q: How did the survival turn out when `Cc1ccc(NC(=O)c2cc(S(=O)(=O)N3CCC4(CC3)OCCO4)ccc2F)cc1Cl` was run?
A: Its survival is inactive: 66%.

Q: With `COC(=O)c1c(NC(C)=O)c2c3c(sc2n1Cc1cc(C)ccc1C)CCCC3` as the molecule, how does the survival read?
A: The survival was inactive: 89%.

Q: `CN(C)S(=O)(=O)N(CC(=O)NCCSCc1c(F)cccc1Cl)c1ccccc1` was tested. Which survival did it give?
A: The survival was inactive: 70%.

Q: With `CCOC(=O)c1ccccc1NC(=O)c1sc2nc3n(c(=O)c2c1C)CCCCC3` as the molecule, how does the survival read?
A: The survival was active: 37%.

Q: Which survival does the source give for `CN(C)c1ncnc2c1ncn2C1OC(CO)C(O)C1O` (configuration not stated) here?
A: The survival was inactive: 75%.

Q: Which survival does the source give for `Cc1cccc(-n2c(C)cc(C(=O)C(=O)Nc3ccccc3F)c2C)c1C` here?
A: Its survival is inactive: 90%.

Q: Which survival does the source give for `CCCN1CCN(CCCNC(=O)c2cc3c(=O)n(CC)c4ccccc4c3s2)CC1` here?
A: Its survival is inactive: 93%.

Q: `Cc1ccc(S(=O)(=O)N2CCC(N3CCN(Cc4ccccc4)C(=O)C3=O)CC2)cc1C` was tested. Which survival did it give?
A: The survival was inactive: 76%.

Q: With `CCN(CC)S(=O)(=O)c1cccc(C(=O)Nc2ccccc2C(=O)Nc2ccc(Cl)cc2)c1` as the molecule, how does the survival read?
A: Its survival is inactive: 83%.

Q: With `Cc1ccc(C)c(NS(=O)(=O)c2cc3c(cc2C)n(C)c(=O)c(=O)n3C)c1` as the molecule, how does the survival read?
A: Its survival is inactive: 101%.

Q: `Cc1ccc(-n2c(/C=C/c3c(C)n(C)c4ccccc34)nc3ccccc3c2=O)cc1` was tested. Which survival did it give?
A: Its survival is inactive: 70%.

Q: How did the survival turn out when `CCOC(=O)c1c(NC(=O)Cc2coc3cc(C)cc(C)c23)sc2c1CCC2` was run?
A: Its survival is inactive: 99%.

Q: Which survival does the source give for `COCCN(CCOC)S(=O)(=O)c1ccc(C(=O)Nc2sc3c(c2C(=O)OC)CCN(C)C3)cc1` here?
A: The survival was inactive: 83%.

Q: For `CC(=O)c1ccc(NC(=O)c2cc(C)nn2-c2ccccc2)cc1`, which survival is on record?
A: Its survival is inactive: 80%.

Q: With `CCOc1ccc2ncc3c(-c4ccc(C)cc4)nn(-c4cccc(F)c4)c3c2c1` as the molecule, how does the survival read?
A: Its survival is inactive: 53%.

Q: How did the survival turn out when `CCOc1ccc(OCC)c(NC(=O)c2cc(S(=O)(=O)N3CCc4ccccc43)cn2C)c1` was run?
A: Its survival is inactive: 72%.

Q: How did the survival turn out when `Cc1ccc(S(=O)(=O)NCC(c2ccco2)N2CCOCC2)cc1` (configuration not stated) was run?
A: Its survival is inactive: 94%.

Q: `O=S(=O)(c1cccc(Cl)c1)c1nnn2c1nc(NCc1ccc3c(c1)OCO3)c1sccc12` was tested. Which survival did it give?
A: Its survival is inactive: 46%.

Q: Which survival does the source give for `Cc1ccc(S(=O)(=O)CC(=O)Nc2nc3c(C)cc(C)cc3s2)cc1` here?
A: The survival was inactive: 96%.

Q: `Cc1cccc(C(=O)Nc2nnc(S(=O)(=O)N(C)Cc3ccccc3)s2)c1` was tested. Which survival did it give?
A: The survival was active: 23%.

Q: How did the survival turn out when `COc1ccc(C(=O)c2oc3ccccc3c2NC(=O)c2cc(=O)c3ccc(C)cc3o2)cc1Cl` was run?
A: The survival was active: 44%.

Q: For `COc1ccc(-c2noc(CNC(=O)c3ccccc3Br)n2)cc1`, which survival is on record?
A: The survival was inactive: 51%.

Q: For `CCOc1ccc(-c2cccc(NS(=O)(=O)c3ccc(F)cc3F)c2)nn1`, which survival is on record?
A: Its survival is inactive: 77%.

Q: How did the survival turn out when `CCn1c(SCC(=O)OC2CCCCC2)nnc1-c1ccc(OC)cc1` was run?
A: Its survival is inactive: 100%.

Q: `COc1cccc(NC(=O)c2cccc3c(=O)c4c([nH]c23)CCCC4)c1` was tested. Which survival did it give?
A: Its survival is inactive: 57%.

Q: How did the survival turn out when `CCCOc1ccc(C2c3c(-c4ccccc4O)n[nH]c3C(=O)N2CCc2ccccc2)cc1OCC` (configuration not stated) was run?
A: The survival was inactive: 53%.

Q: Which survival does the source give for `Cc1ccc2oc(=O)c3cc(C(=O)NCCCOC(C)C)sc3c2c1` here?
A: The survival was inactive: 92%.

Q: With `CCOC(=O)CSc1nc(-c2ccc(OCC)cc2)cc(C(F)(F)F)c1C#N` as the molecule, how does the survival read?
A: The survival was inactive: 67%.

Q: For `CCN1C(=C(C#N)C#N)C=Cc2cc(C)ccc21`, which survival is on record?
A: Its survival is inactive: 70%.

Q: With `CCc1nnc(NC(=O)c2cc(=O)c3cc(C)ccc3o2)s1` as the molecule, how does the survival read?
A: Its survival is inactive: 79%.

Q: Which survival does the source give for `COc1ccccc1CNC(=O)C(=O)NCC(c1cccs1)S(=O)(=O)c1ccccc1` (configuration not stated) here?
A: The survival was inactive: 123%.

Q: For `CC(=O)c1ccc(N2CCN(S(=O)(=O)c3cc4[nH]c(=O)c(=O)[nH]c4cc3C)CC2)cc1`, which survival is on record?
A: Its survival is inactive: 93%.

Q: Which survival does the source give for `Cc1ccc(C)c(N2CCN(C(=O)Cn3cnc4onc(-c5ccc(F)cc5)c4c3=O)CC2)c1` here?
A: The survival was inactive: 83%.

Q: For `O=C(CCCCn1c(=O)c2ccccc2n(Cc2cccc(F)c2)c1=O)NCCc1ccccc1`, which survival is on record?
A: The survival was inactive: 94%.

Q: Which survival does the source give for `Cc1ccc(C)c(NC(=O)CN2C(=O)CCc3cc(S(=O)(=O)N4CCCCC4)ccc32)c1` here?
A: Its survival is inactive: 49%.

Q: How did the survival turn out when `CC(=O)N1CCC(N(Cc2ccc(C)o2)C(=O)Nc2cccc(C(F)(F)F)c2)CC1` was run?
A: The survival was inactive: 91%.

Q: `Cc1ccc2c(c1)-c1nc(-c3ccc4c(c3)NC(=O)CO4)cc(-c3ccccc3)c1CO2` was tested. Which survival did it give?
A: The survival was inactive: 95%.
